Patent publication US11471507B2, “HMGB1 antagonist” (THE FEINSTEIN INSTITUTES FOR MEDICAL RESEARCH, priority 2019, dated 2022)

Columns and labels:
[1] = test system: influenza virus, strains A/PR/8/34 (PR8); assay: Influenza infection lethality; format: in vivo, C57BL/6J mice; conditions: 100 ug/mouse IP for 5 consecutive days from day 2, 14 days
[2] = test system: influenza virus, strains A/PR/8/34 (PR8); conditions: given daily for five days beginning two days after influenza infection; cited from earlier work

| SMILES | clinical scores [1] | survival [1] | reduction of mortality [2] |
| --- | --- | --- | --- |
| NC(=O)N(CCC(=O)O)NC(=O)[C@H](CO)NC(=O)[C@H](CO)NC(=O)N(N)Cc1ccccc1 [K883] | lowered clinical scores | significant survival |  |
| NC(=O)[C@H](CCC(=O)O)NC(=O)[C@H](CO)NC(=O)[C@H](CO)NC(=O)[C@@H](N)Cc1ccccc1 [P5779] |  |  | approximately 9 fold |
